# The list shows a part of the results. These are noisy estimates, calculated here from bound and input reads.
# Target: T1, Pho4 (S. cerevisiae) (UniProt P07270)
# T1 sequence: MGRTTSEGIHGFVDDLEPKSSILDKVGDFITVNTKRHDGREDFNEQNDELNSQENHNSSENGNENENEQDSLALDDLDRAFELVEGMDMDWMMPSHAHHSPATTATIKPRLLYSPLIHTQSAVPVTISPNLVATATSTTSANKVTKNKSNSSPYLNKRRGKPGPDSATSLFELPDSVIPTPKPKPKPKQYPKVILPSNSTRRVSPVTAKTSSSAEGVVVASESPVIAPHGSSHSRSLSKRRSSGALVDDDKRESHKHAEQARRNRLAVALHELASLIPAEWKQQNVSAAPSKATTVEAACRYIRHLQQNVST
# Assay: relative binding free energy (BET-seq); higher = weaker binding
# Settings: reference: library average
row,Sequence,relative binding free energy [kcal/mol]
1,GGTTGCACGTGGGAGC,-0.07
2,GGAATCACGTGGAAGG,0.19
3,TATATCACGTGTTTGA,0.1
4,CTCAGCACGTGGATGG,0.09
5,TAGATCACGTGTGGGA,0.1
6,ATGCTCACGTGTTGTT,0.09
7,TATGTCACGTGAGGGA,0.2
8,TGGGGCACGTGTGGCA,0.02
9,TTTTTCACGTGTAAGA,0.47
10,AAAGTCACGTGCTTGG,-0.06
11,ATGTGCACGTGTTGCC,0.05
12,ATGAGCACGTGTGGCA,0.09
13,AGTCACACGTGCTGGG,0.1
14,GCTAACACGTGGAGGG,0.17
15,GTTAACACGTGGGTCT,0.05
16,GTGCGCACGTGATATG,0.07
17,CTAGCCACGTGGGAGG,-0.13
18,AATAACACGTGGTGTG,-0.12
19,TATGACACGTGGTGAA,0.08
20,ATAGTCACGTGAAAGG,0.25
21,TTAAGCACGTGTAACG,0.23
22,TGCTGCACGTGCGTGT,-0.12
23,CAGGGCACGTGAGTGG,0.12
24,TTGCGCACGTGATTTA,0.08
25,TTATTCACGTGGCGTC,0.3

row,Sequence,relative binding free energy [kcal/mol]
1,TGGTTCACGTGCTATA,0.19
2,TCATACACGTGGTTGT,-0.1
3,TGTGTCACGTGGTTAA,0.11
4,GACTGCACGTGGATGT,0.01
5,CTGTGCACGTGCGGGG,-0.03
6,ACGGGCACGTGGCTTT,-0.09
7,ATATTCACGTGGGTTT,0.17
8,TAGTGCACGTGGTTAC,-0.1
9,GGCTTCACGTGGGTAT,0.1
10,AGGTGCACGTGAATGA,0.12
11,AGGTGCACGTGTATCT,-0.01
12,CTTGTCACGTGGGGAG,-0.14
13,ACAGTCACGTGAAGTT,0.39
14,GTAATCACGTGTGGTA,0.21
15,TGTTACACGTGGATCG,0.08
16,TTTAACACGTGAAATT,0.27
17,GAGTTCACGTGCGGGA,0.22
18,AATGTCACGTGTTCTG,0.15
19,ATATACACGTGAGGAG,0.19
20,GGTCACACGTGGGTAT,0.01
21,CTGTGCACGTGGTATA,-0.25
22,GGATTCACGTGGTGGC,0.43
23,GAGTGCACGTGGATGG,0.09
24,ATTGGCACGTGCGAGA,-0.16
25,AACTGCACGTGCGGGG,-0.05

row,Sequence,relative binding free energy [kcal/mol]
1,TGTGGCACGTGAGCTT,0.05
2,GTTTCCACGTGTTGGA,0.2
3,GTTGTCACGTGAACGA,0.31
4,GATATCACGTGATGTG,0.23
5,CGTATCACGTGTGGGT,0.17
6,GATACCACGTGGGGTG,-0.15
7,TATGGCACGTGCGGCT,-0.12
8,GTATCCACGTGAGTTG,0.19
9,TGTGTCACGTGCGTAA,0.05
10,AAGAGCACGTGTGGTC,-0.05
11,GTACTCACGTGGCGTG,0.09
12,TCCAGCACGTGGTGTG,-0.16
13,GGGGTCACGTGCTTCG,0.03
14,AGAGGCACGTGGTGGT,-0.1
15,TACTGCACGTGGGTGG,-0.18
16,GAGATCACGTGTGTAT,0.24
17,AGGTGCACGTGGAGAG,0.03
18,GGTGACACGTGGACTG,0.06
19,GGGAGCACGTGGATAA,-0.02
20,ATTGGCACGTGCATTT,-0.25
21,ATATGCACGTGTAAAT,0.11
22,TTCGACACGTGTTTGA,0.02
23,TAGGACACGTGGTGCA,-0.12
24,GGCTGCACGTGATGGA,0.24
25,GGATCCACGTGTTAGG,0.03

row,Sequence,relative binding free energy [kcal/mol]
1,GGGAGCACGTGATGCT,0.05
2,GCCAGCACGTGGGGGT,-0.27
3,TAATTCACGTGCGTAG,0.26
4,GGGGGCACGTGTGGGG,-0.04
5,TGTTACACGTGGACGA,0.24
6,AGTGACACGTGTTTTG,-0.05
7,TGTAACACGTGAGGGG,0.25
8,GACGTCACGTGTATAG,0.3
9,TGTATCACGTGTAATC,0.27
10,TGGCTCACGTGTTTAA,0.17
11,GGGGTCACGTGTTGCA,0.13
12,GAATACACGTGGGGGT,0.08
13,TAGATCACGTGGTCTA,0.16
14,TTTGCCACGTGGTATT,-0.07
15,TACACCACGTGGTGGT,0
16,TTATGCACGTGAGGTA,0.1
17,GGCTGCACGTGAGGGG,0.31
18,TCGTTCACGTGCAGTT,0.28
19,TTGAGCACGTGGCGAG,-0.18
20,TTCTTCACGTGGCTGG,0.16
21,AAGGCCACGTGGCGGG,-0.23
22,CTGTGCACGTGGGCGG,-0.12
23,TTGGTCACGTGTATCT,0.25
24,ATCAGCACGTGGTGGT,-0.21
25,GGGCACACGTGATCGT,0.25

row,Sequence,relative binding free energy [kcal/mol]
1,GGGCGCACGTGTTTGG,-0.06
2,TACGGCACGTGCGGGT,-0.06
3,ACAGTCACGTGAGGTG,0.13
4,TATAACACGTGGGGCG,-0.19
5,TTTATCACGTGTTCGA,0.14
6,AAAGGCACGTGTTTGA,-0.1
7,ATGTCCACGTGGTGCA,0
8,GTGTGCACGTGCAAGG,-0.11
9,TGACTCACGTGAATGT,0.44
10,ATCATCACGTGGTATG,0.22
11,TAATACACGTGTAGTG,-0.05
12,TGTAGCACGTGAGGTT,0.19
13,TGATACACGTGGGGTC,-0.13
14,GTAGCCACGTGGAAGG,0.13
15,AAAAGCACGTGGGAGT,-0.18
16,TGGATCACGTGGGTGA,0.08
17,AGAGTCACGTGTAATT,0.29
18,AGTCGCACGTGGGTGA,-0.22
19,ATTTTCACGTGTCGTT,0.29
20,TCTGGCACGTGTTTTG,-0.09
21,TTTTACACGTGGTGTC,0.1
22,GTGAACACGTGGTTAA,0.07
23,TTTTACACGTGCGGGT,0.04
24,TTTCACACGTGTAGGA,0.21
25,TGTTCCACGTGAGCGG,0.35

row,Sequence,relative binding free energy [kcal/mol]
1,TTATTCACGTGTATAT,0.22
2,GTGGCCACGTGCAGGG,-0.17
3,AAGGTCACGTGCGAGG,-0.08
4,TGGGGCACGTGGGAAT,-0.04
5,TAGTGCACGTGTGGTT,0.13
6,CGTGCCACGTGGGGTA,-0.23
7,TTGAACACGTGGTGCT,-0.08
8,TAGTGCACGTGTGGAT,0.02
9,AGTGGCACGTGGCATT,-0.14
10,TTGCGCACGTGGGCGT,-0.23
11,AAAAGCACGTGTTGTT,-0.15
12,CTTATCACGTGTTATT,0.29
13,GTACACACGTGGGGGA,-0.11
14,TTGCTCACGTGAAGTG,0.4
15,TCTGCCACGTGGGATT,-0.03
16,ATGGTCACGTGATTTG,0.37
17,GTAAACACGTGAGTTT,0.34
18,TGCGGCACGTGACGGA,0.04
19,CTAGACACGTGGTGTG,-0.1
20,AGTGTCACGTGGGCCT,-0.1
21,AGTGTCACGTGAATAA,0.41

# From the BET-seq Pho4 binding data (Le et al. 2018)
